From PubChem BioAssay AID1745853 (National Center for Advancing Translational Sciences (NCATS), 2022)
The other results are listed elsewhere or left out. These are further read-outs of the screen, such as a control signal, another cell line or another target. No call is given for them.

How the values were obtained:
Assay in all cases: Primary Screen for Target Class Profiling of Small Molecule Inhibitors of Methyltransferases
[1] = target: Glycine N-methyltransferase (Homo sapiens) (UniProt Q14749); settings: purified enzyme, MTase-Glo SAH luminescence; measured here: GNMT inhibition; at 40 µM; stronger effect = lower value
Procedure, shortened: (§1)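 Each enzyme was assayed with SAM and its substrate. SAH formation detected by MTase-Glo luminescence; single-point 40 uM screen[…].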

[2] = target: Guanidinoacetate N-methyltransferase (Homo sapiens) (UniProt Q14353); settings: purified enzyme, MTase-Glo SAH luminescence; measured here: GAMT inhibition; at 40 µM; stronger effect = lower value
Procedure, shortened: as §1

[3] = target: Histamine N-methyltransferase (Homo sapiens) (UniProt P50135); settings: purified enzyme, MTase-Glo SAH luminescence; measured here: HNMT inhibition; at 40 µM; stronger effect = lower value
Procedure, shortened: as §1

[4] = target: Nicotinamide N-methyltransferase (Homo sapiens) (UniProt P40261); settings: purified enzyme, MTase-Glo SAH luminescence; measured here: NNMT inhibition; at 40 µM; stronger effect = lower value
Procedure, shortened: as §1

[5] = target: Phenylethanolamine N-methyltransferase (Homo sapiens) (UniProt P11086); settings: purified enzyme, MTase-Glo SAH luminescence; measured here: PNMT inhibition; at 40 µM; stronger effect = lower value
Procedure, shortened: as §1
% is scaled to controls: 0 for no effect and ±100 for the full control effect.

| Compound | activity change, negative = inhibition [1] [%] | activity change, negative = inhibition [2] [%] | activity change, negative = inhibition [3] [%] | activity change, negative = inhibition [4] [%] | activity change, negative = inhibition [5] [%] |
| --- | --- | --- | --- | --- | --- |
| COc1ccc(C)cc1NC(=O)Cn1c(=O)oc2cc(S(=O)(=O)N3CCCC3)ccc21 | -7.33 | 3.18 | -1.14 | -1.65 | -5.2 |
| Oc1ccc(C2CNCCc3c2cc(O)c(O)c3Cl)cc1 (stereo unspecified) | -43.7 | 0.885 | -40.2 | -9.6 | 4.68 |
| CC1CCCCC1NC(=O)Cn1ccc2cc(S(=O)(=O)N3CCCC3)ccc21 (stereo unspecified) | -1.79 | 0.7 | -5.59 | -7.75 | -7.92 |
| N#Cc1cc2c(=O)n(CCCCN3CCCC3)ccc2[nH]c1=O | -2.88 | -1.58 | -32.4 | -0.841 | 1.46 |
| Cc1ccc(-c2n[nH]n3c2nc(=O)c2ccc(C(=O)NC4CCC(C)CC4)cc23)cc1 (stereo unspecified) | -14.6 | 1.17 | 4.03 | 1.77 | 0.563 |
| C=C1C(=O)OC2CC(COC(=O)C(C)C)=C(C(C)CCCOC(C)=O)[C@@H](OC(C)=O)C12 (stereo partly specified) | 0 | 5.76 | 7.03 | -5.6 | 3.44 |
| CC1CCC(NC(=O)C2(C)Cn3c(cc4sccc43)C(=O)N2Cc2ccc(OC(C)C)cc2)CC1 (stereo unspecified) | -2.99 | 3.83 | -3.3 | -2.02 | -6.19 |
| Cc1noc(-c2ccc(OC3CN(S(=O)(=O)c4c(C)noc4C)C3)cc2)n1 | -1.1 | 1.06 | 0.921 | -2.17 | -8 |
| C=C1C(=O)OC2C(OC(=O)C=C(C)C)C(C)=C3C(=O)C=C(C)C3C(O)C12 (stereo unspecified) | 2.64 | 1.22 | 9.99 | -7.89 | 4.19 |
| CCC(C)C(=O)O[C@H]1[C@@H](OC(=O)c2ccoc2)C[C@](C)(O)[C@]23OC(C)(C)[C@H](C[C@H](OC(=O)c4ccoc4)[C@]12COC(C)=O)[C@H]3OC(C)=O (stereo partly specified) | 0 | 1.21 | 2.67 | -12.5 | 5.78 |
| CN1C(=O)c2cc(C(=O)NCCN3CCCC3)nn2CC1(C)C(=O)NC1CCCCC1 (stereo unspecified) | 3.09 | 8.51 | 0.537 | 6.02 | 0.369 |
| CCNC(=O)N[C@H]1[C@H](O)[C@@H](N2CCN(c3ccccc3OC)CC2)[C@@H]2OC[C@H]1O2 | -1.59 | -5.1 | -0.313 | -5.9 | -3.09 |
| C[C@H](NCc1ccc(OCc2cccc(F)c2)cc1)C(N)=O |  | 1.48 |  | -14.5 | 2.91 |
| CN1CCC2(C1)CN(Cc1ccccc1)c1ccc(C(=O)N3CCOCC3)cc12 (stereo unspecified) | -4.54 | -2.45 | -3.83 | -12.8 | -21.2 |
| CC1(C(=O)NCc2ccccc2)Cn2c(ccc2-c2ccco2)C(=O)N1c1ccc(F)cc1 (stereo unspecified) | -9.26 | 4.52 | 2.49 | -0.88 | -0.816 |
| CC(C)CCn1c(=O)c2ccccc2n2c(=O)n(CC(=O)Nc3ccc4c(c3)OCO4)nc12 | 3.4 | 4.87 | 2.68 | -1.3 | 3.96 |
| CC1CCN(Cc2nnnn2CCCC(=O)N2CCN(CCO)CC2)CC1 | -0.987 | 0.024 | 0.839 | 2.5 | 7.88 |
| CN(Cc1ccccc1)C(=O)[C@H]1C[C@@H](O)[C@H](O)[C@@H]2N=C(Nc3ccc(-n4cccn4)cc3)S[C@@H]21 | -11.2 | -4.81 | -5.68 | -12.3 | -3.14 |
| O=C(c1ccncc1)N1CCCC(CN2CCCC2)CC1 (stereo unspecified) | -7.09 | -7.79 | -18.6 | -9.14 | -3.19 |
| CC1(C(=O)NC2CCCCCC2)Cn2c(cc3occc32)C(=O)N1CCCc1ccccc1 (stereo unspecified) | 1.85 | 0 | 10.1 | 0.145 | 1.86 |

| Compound | activity change, negative = inhibition [1] [%] | activity change, negative = inhibition [2] [%] | activity change, negative = inhibition [3] [%] | activity change, negative = inhibition [4] [%] | activity change, negative = inhibition [5] [%] |
| --- | --- | --- | --- | --- | --- |
| CCc1ccc(CNC(=O)C(CC)n2ccc3cc(S(=O)(=O)N4CCCCC4)ccc32)cc1 (stereo unspecified) | 4.47 | 6.11 | 0.98 | -6.78 | 0.606 |
| C=CCNC(=O)N[C@H]1CCN(C(=O)CC(C)(C)C)[C@@H]1C(=O)N[C@@H](Cc1cccs1)C(N)=O | -6.11 | -12.1 | -4.64 | -7.23 | -10.2 |
| COc1ccccc1-c1nnc2n(Cc3ccc(C)cc3)c(=O)c3ccccc3n12 | -13.6 | -3.15 | -9.77 | -12 | -10.4 |
| CCCCCCCCC(=O)N[C@H](CN1CCCC1)[C@H](O)c1ccc2c(c1)OCCO2 | -6.39 | -4.95 | 0.323 | -20.1 | -1.4 |
| C=C1C(OC2OC(CO)C(O)C(O)C2O)CC2C(C)(C)C(O)CCC2(C)C1CC/C(C)=C\COC(=O)CC(=O)O (stereo unspecified) | -5.08 | 3.1 | 5.2 | -8.23 | 7.31 |
| CCOc1ccc(N2C(=O)c3cc(C(=O)OC)nn3CC2(C)C(=O)NC2CCCCCC2)cc1 (stereo unspecified) | -3.71 | 3.67 | 0.365 | -4.55 | -6.47 |
| COc1cccc(CN2CC(C(=O)NCc3n[nH]c(=O)[nH]3)CCC2=O)c1 (stereo unspecified) | -1.31 | 2.73 | 1.16 | -3.27 | 11.9 |
| CCc1nc(NC(=O)Cn2nc3c(cc2=O)CCCC3)sc1C | -12.4 | -5.1 | -4.75 | -14.8 | -7.46 |
| CN1CCN(C(c2ccc(F)cc2)c2sc3nc(-c4ccco4)nn3c2O)CC1 (stereo unspecified) |  | -2.03 |  | -6.39 | 5.59 |
| COC(=O)C1=C(C)NC(COC(N)=O)=C(C(=O)OC(C)C)C1c1cccc(Cl)c1Cl (stereo unspecified) | -3.05 | -2.98 | 7.78 | -26.5 | -2.33 |
| O=C(OCC1=C[C@@H](O)[C@@H]2C=CO[C@@H](O[C@@H]3O[C@H](CO)[C@@H](O)[C@H](O)[C@H]3O)[C@H]12)c1ccc(O)cc1 | -5.05 | -7.58 | 5.7 | -17.1 | 0.391 |
| CC(=O)NCCCCn1c2c(c3ccccc31)C(=O)NCC2 | 1.26 | -15.8 | 11.2 | -15.9 | -53.5 |
| C=C(C(=O)OC)C1C(O)CC2(C)C(=O)CCC(O)(CO)C2C1O (stereo unspecified) | -1.8 | 1.69 | 7.18 | -5.2 | -6.77 |
| CC(=O)NC1(C)CCN(Cc2cnc(-c3cccc(F)c3)s2)CC1 | -11.3 | -12.9 | -5.85 | -23.7 | -22.8 |
| O=C(Cc1ccccc1)NCc1nnc2n1C(C(=O)O)CC2 (stereo unspecified) | -7.52 | -9.39 | -3.34 | -6.27 | -8.34 |
| COc1cc([C@H]2OC[C@]3(OC(C)=O)[C@@H](c4ccc(O[C@@H]5O[C@H](CO)[C@@H](O)[C@H](O)[C@H]5O)c(OC)c4)OC[C@H]23)ccc1O | 0 | 6.68 | 8.76 | -5.14 | 3.75 |
| CCC(C)NC(=O)c1ccc2c(=O)n(CCC(C)C)c3nn(Cc4ccc(C)cc4)c(=O)n3c2c1 (stereo unspecified) | 4.54 | 0 | 6.47 | -1.23 | 4.77 |
| Cc1nc(N(C)C)ncc1C(=O)N1CCN(c2ccccc2C#N)CC1 | -5.52 | -8.43 | -3.21 | -15.4 | -26.5 |
| CC1(C)CCC=[N+]1[O-] | 4.71 | 13.5 | 8.86 | -2.28 | 5.88 |
| Cc1ccc(C)c(Cn2nc3n(Cc4ccc(F)cc4)c(=O)c4ccccc4n3c2=O)c1 | 5.56 | 1.25 | 8.82 | 7.71 | 3.68 |

| Compound | activity change, negative = inhibition [1] [%] | activity change, negative = inhibition [2] [%] | activity change, negative = inhibition [3] [%] | activity change, negative = inhibition [4] [%] | activity change, negative = inhibition [5] [%] |
| --- | --- | --- | --- | --- | --- |
| CCCN1C(=O)c2cc3oc(C)cc3n2CC1(C)C(=O)NC1CCCCCC1 (stereo unspecified) | -6.83 | 4.7 | -1.92 | -6.22 | -4.23 |
| CC(C)CCNC(=O)C1(C)Cn2nc(C(=O)NCCc3ccccc3)cc2C(=O)N1C (stereo unspecified) | -1.89 | 1.47 | 5.49 | 2.37 | 0.315 |
| CCCN1C(=O)c2nc3ccccc3n2CC1(C)C(=O)NC1CCCC(C)C1C (stereo unspecified) | 8.73 | 1.93 | 8.74 | 0.036 | 4.31 |
| Cc1cc(CN(C)c2ccc(-c3nc(-c4ccccc4F)no3)cn2)on1 | -8.5 | -11.4 | -5.02 | -13.8 | -13.4 |
| CC1(C)CCCC2(C)C(C(=O)O)=CCC12 (stereo unspecified) | -3.93 | -8.82 | 1.87 | -21.1 | 0.475 |
| COc1cc(NC(=O)N2CCn3cccc3C2C)cc(OC)c1 (stereo unspecified) | 0.871 | 0 | 5.65 | 1.78 | 8.05 |
| COc1ccc(CN2C(=O)COC[C@H]2C(=O)Nc2cc(F)cc(F)c2)cc1OC | -8.23 | 0.308 | 3.54 | -5 | 1.08 |
| COc1ccc(OC2CCN(C(C)=O)CC2)c(C(=O)N2C[C@@H]3CCC[C@H]2C3)c1 | -4.96 | -10.2 | -3.33 | -9.29 | -0.878 |
| CC(C)CCn1c(=O)c2ccccc2n2c(SCC(=O)Nc3ccc(F)cc3F)nnc12 | -0.386 | 4.21 | -1.28 | -19.9 | 1.03 |
| O=C(Cn1nc2n(Cc3ccc(F)cc3)c(=O)c3ccccc3n2c1=O)NCc1ccc(Cl)cc1 | -3.89 | -0.03 | -4.06 | -10.4 | -3.6 |
| C=CCSC(C)C(=O)N1CCCn2nc(C(=O)OC)cc2C1 (stereo unspecified) | -0.072 | 2.29 | 3.65 | 1.37 | -0.212 |
| C=C1[C@H]2[C@H](O[C@@H]3O[C@H](COC(=O)/C=C/c4cc(OC)c(O)c(OC)c4)[C@@H](O)[C@H](O)[C@H]3O)OC=C(C(=O)O)[C@H]2C[C@@H]1O | 2.21 | 3.72 | 9.48 | -7.92 | 5.95 |
| Cc1nc([C@](C)(O)CO)sc1-c1cnc(N)c(O[C@H](C)c2cc(F)ccc2-n2nccn2)c1 | -1.56 | -25.6 | -4.24 | -19.7 | -11.5 |
| CCC(C)NC(=O)c1ccc2c(=O)n(CC(C)C)c3nn(CC(=O)c4cccc(Cl)c4)c(=O)n3c2c1 (stereo unspecified) | -1.71 | -0.113 | 1.69 | -7.24 | -4.47 |
| O=C(Cn1cccn1)N1C[C@@H](COCC2CC2)[C@H](c2ccccn2)C1 | -0.148 | 0.373 | -0.335 | -0.543 | 9.55 |
| CC1(C(=O)NC2CCCCCCC2)Cn2c(ccc2-c2ccco2)C(=O)N1Cc1ccc(F)cc1 (stereo unspecified) | -9.12 | 0 | 0.355 | -20.5 | -5.06 |
| C[C@@H](NS(C)(=O)=O)c1onc(-c2cccnc2)c1C(=O)O | -7.08 | -10.8 | -9.66 | -16.2 | -13.4 |
| CCOC(=O)c1ccc2c(c1)C1C=CCC1C(c1ccc(F)cc1)N2 (stereo unspecified) | -10.8 | -9.82 | -14.7 | -11.8 | -10.2 |
| COCCN1CC(CO)C2(CCN(Cc3ccc(C#N)cc3)CC2)C1 (stereo unspecified) | -8.04 | -5.78 | -9.44 | -12.1 | -34.5 |
